Measured values: the RNAGym collection of RNA variant scans (doi:10.1093/nar/gkz1192)
The source gives no read counts; variants with many changes may rest on few reads.

B1: CPEB3 Ribozyme (parent)
chain: UAACAGGGGGCCACAGCAGAAGCGUUCACGUCGCAGCCCCUGUCAGAUUCUGGUGAAUCUGCGAAUUCUGCUGUAUAUCUC

Variants of: B1
Assay: self-cleavage, relative activity (ratio to wild type); higher = more cleavage; in vitro, sequencing
Method in brief: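 After error-prone PCR and barcoding, CPEB3 ribozyme mutant libraries were transcribed with T7 RNA polymerase at 37°C for 5 hours, then given 15 min with DNase I before an EDTA stop, and they cleaved during both steps. Reverse transcription with template switching preceded Illumina sequencing. Relative activity divides a variant's cleaved/total read fraction by the unmutated ribozyme's. At least 5 reads were required per variant, and three batches were averaged.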

Variant	self-cleavage
A5U A47G U69C U74G A77G	0.76
A5U G24A U25C U58C U67C	0.07
A5U A21G U26A A28G U66A U67A C71A	0.1
A5U A28U G33C U43C U54C	0.25
A5U C27G A75G	0.29
A5U G9U A57G U66C U80C	0.23
A5U A35U U78C	0.55
A5U G22C U49C U54C G70C	0.18
A5U A28G U41A U67A	0.11
A5U A45G C62G	0.38
A5U C14A U31C U58C U67C U69C	0.11
A5U G22A C38A A64G C71U	0.08
A5U G10A C68A	0.1
A5U G24A A28G U31A	0.09
A5U G7C A65G U72A	0.3
A5U A35G A45U U51C	0.87
A5U A45G A57G U69C	0.26
A5U C14U A15U G24A G53A U72C	0.41
A5U C11U A15U C44A U69C U76A U78C	0.06
A5U G9U A35U C38U U60C	0.15
A5U G7C U31C A35G A64U	0.12

Variant	self-cleavage
A5U C17U U41C G46U C71A	0.06
A5U U25C G53C U74C	0.21
A5U A57G A65G U67C C71G U74A U80C	0.25
A5U G10A U31C A35G U43C U48C U51A	0.24
A5U G6A U72A	0.16
A5U G8A U43C U49C U51C A64G A75G	0
A5U C38U U72C	1.16
A5U A21G C37G U48C	0.22
A5U G10A A77G	0.1
A5U A28U A35G U51A U72C U80C	1.26
A5U C29U U43C	0.15
A5U G10A U49C	0.22
A5U C50A U54C	0.86
A5U G9U A35U C38U U48C	0.07
A5U C27U A47U A57G	0.11
A5U C50U A56G U67C U80C	0.2
A5U A21G U54C A56C	0.21
A5U A35U C59U	0.34
A5U A35U U54C A56G	0.45
A5U A47G C59U	0.7
A5U A28U U48C U51A A65G U69C	0.12

Variant	self-cleavage
A5U C14A U74A	1.02
A5U G8A A18G U48C U49C U60A	0.23
A5U A21G U54C U58C A77U	0.2
A5U A21U A45G G46U U51C U58C	0.2
A5U C17U U41A U60A U76C C79U	0.09
A5U C11U U54A U60G	0.19
A5U C32U C40A U67C U80A	0.08
A5U G10A A18G A45U	0.06
A5U A35G G53A	1.26
A5U G30U U51G	0.25
A5U A35U A64U U80A	0.28
A5U G8A G10C A47G U49C A65U U69C	0.07
A5U G10U A56G A65G	0.13
A5U C11U A28U U31C U67C U80C	0.08
A5U C17U A20U A45U	0.32
A5U C40U U43A U58C U69C U74C	0.2
A5U C11A U54C U69C U72A U76C A77U	0.06
A5U G61U A64U	0.16
A5U A28U A75C	1.32
A5U C12U C17U A47G U54A	0.66
A5U G36A U49C U78A	0.11

Variant	self-cleavage
A5U C12A U49C	0.49
A5U G53C U58C G61C A64U U69A U72C	0.15
A5U U25A U41A G70A	0.23
A5U C38A C44U	0.26
A5U G9A A21G A35G U43A U69A	0.34
A5U C12G U31C U67C	0.09
A5U A28G U41C A45G U51A	0.6
A5U G6A A28G C29G U31A U54A	0.38
A5U C11U A64G	0.28
A5U G6A C23U U26C	0.06
A5U C40U A45G U51A A57G U74A A75G	0.29
A5U A45G U51C A75U	1.02
A5U G63U U80C	1.15
A5U C12A U66C	0.48
A5U G9A C27A G42A	0.08
A5U U25A C40U U66A	0.66
A5U A45U U60C	0.83
A5U C39U A56G G70U U72C	0.12
A5U G55A A57G	0.62
A5U A45U U67C	0.14
